# Experimental data as given in PubChem BioAssay AID588591 (National Center for Advancing Translational Sciences (NCATS), 2011).
# Out of some 390,000 compounds screened, about 4,700 (1.2%) were called active. Inconclusive means that the source gave no clear call. Such entries were picked first, then a sample of the others. Calls come from the whole dose curve; as a rule, active = well fitted inhibition curve with a large enough effect; inconclusive = small, poorly fitted or top-dose-only effect, or another doubt; inactive = no such curve, though single readings can be large or run the other way. Where the call is inconclusive, the potency comes from a doubtful curve fit.
# Target: DNA polymerase eta (Homo sapiens) (UniProt Q9Y253)
# Chain of UniProt Q9Y253 (Q9Y253 whole entry, looked up): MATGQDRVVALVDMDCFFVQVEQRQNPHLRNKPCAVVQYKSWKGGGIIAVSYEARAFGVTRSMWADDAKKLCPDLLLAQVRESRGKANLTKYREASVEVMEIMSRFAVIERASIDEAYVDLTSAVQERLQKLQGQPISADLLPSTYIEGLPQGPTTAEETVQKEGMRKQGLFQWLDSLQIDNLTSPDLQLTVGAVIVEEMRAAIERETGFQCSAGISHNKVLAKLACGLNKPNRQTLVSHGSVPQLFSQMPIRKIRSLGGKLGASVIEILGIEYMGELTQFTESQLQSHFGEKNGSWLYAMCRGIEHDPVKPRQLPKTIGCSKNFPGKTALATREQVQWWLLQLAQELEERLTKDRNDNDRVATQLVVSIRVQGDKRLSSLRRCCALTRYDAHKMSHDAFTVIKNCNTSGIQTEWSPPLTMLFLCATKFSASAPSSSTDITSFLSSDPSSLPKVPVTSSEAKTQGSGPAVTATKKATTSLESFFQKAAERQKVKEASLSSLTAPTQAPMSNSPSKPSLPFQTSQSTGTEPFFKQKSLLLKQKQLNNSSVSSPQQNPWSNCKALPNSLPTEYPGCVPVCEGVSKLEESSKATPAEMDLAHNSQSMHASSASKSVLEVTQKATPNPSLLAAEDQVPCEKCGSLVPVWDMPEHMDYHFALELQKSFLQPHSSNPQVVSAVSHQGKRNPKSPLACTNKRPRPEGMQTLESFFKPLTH
# Assay: qHTS for Inhibitors of Polymerase Eta
# Details: recombinant Pol eta, fluorescent DNA replication assay; series mostly up to 114 µM; activity change, negative = inhibition: at the top concentration
# How it was run: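 Pol eta at 10 nM preincubated with compounds 15 min at room temperature; reaction started with fluorescent substrate (50 nM final) and read kinetically at 0 and 10 min.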
# % is set by controls: 0 for no effect and ±100 for the full control effect; potency is the fitted concentration of half-maximal effect; tags give direction and shape of the fitted curve.
Structure (SMILES),Potency,"activity change, negative = inhibition"
O=C(COc1cccc2c1CCN(Cc1ccccc1)C2=O)NCc1ccco1,"inconclusive: 28.2 µM [inhibitor, partial curve, poor fit]",–
Cc1cc2nc(-c3ccc(SCc4ccc(C(=O)O)cc4)nc3)[nH]c2cc1C,active: 28.2 µM,–
COc1ccc(/C=C/C(=O)O)cc1S(=O)(=O)N1CCCC1,active: 17.8 µM,–
CCCCNS(=O)(=O)c1ccc2nc(SCC(=O)Nc3ccccc3Cl)[nH]c2c1,"inconclusive: 8.91 µM [inhibitor, partial curve, poor fit]",–
Cc1cccc(-n2cnc(C(=O)N/N=C\c3ccc(Br)cc3)c2)n1,"inconclusive: 8.91 µM [inhibitor, partial curve, poor fit]",–
O=C(c1ccc(Cl)c(S(=O)(=O)N2CCc3ccccc32)c1)N1CCN(c2ccccc2O)CC1,"inconclusive: 12.6 µM [inhibitor, partial curve]",–
CCC(=O)c1ccc(OCC(=O)NNC(=O)c2cc(C)oc2C)cc1,–,inactive: -17.8%
COc1cc(/C=C2/C(=N)N3N=C(CC(=O)N4CCOCC4)SC3=NC2=O)ccc1OCc1ccc(F)cc1,"inconclusive: 31.6 µM [inhibitor, partial curve, poor fit]",–
Cc1ccc(/C=C/C(=O)Nc2ncc(C)s2)o1,"inconclusive: 10 µM [inhibitor, partial curve]",–
O=C(C1=C(O)C(=O)N(CCc2ccccc2)C1c1ccncc1)c1cc2ccccc2o1 (stereo not drawn),"inconclusive: 14.1 µM [inhibitor, full curve, poor fit]",–
COC(=O)Cc1c(C)nc2nc(-c3ccc(C)cc3)[nH]n2c1=O,inactive,–
O=C(Nc1ccccc1C(=O)OCC(=O)N1CCc2ccccc2C1)c1ccco1,"inconclusive: 31.6 µM [inhibitor, partial curve]",–
O=C(Nc1nnc(-c2ccco2)s1)C1CCCCC1,"inconclusive: 22.4 µM [inhibitor, single point]",–
Cc1[nH]n(-c2ccccc2)c(=O)c1/C=N/Nc1nncc(-c2ccccc2)n1,–,inactive: -6.39%
CCCCOc1ccc(C(=O)N(Cc2ccco2)Cc2ccco2)cc1,active: 31.6 µM,–
Cc1ccc(NC(=O)CNc2cccc(S(=O)(=O)N3CCCCC3)c2)cc1F,"inconclusive: 3.16 µM [inhibitor, full curve, poor fit]",–
CC(C)CNC(=O)CSc1nc2scc(-c3ccccc3)c2c(=O)[nH]1,"inconclusive: 31.6 µM [inhibitor, partial curve, poor fit]",–
CC(C)(C)OC(=O)NCc1ccc(CNC(=O)c2[nH]cnc2C(=O)NC2CCN(C(=O)OC(C)(C)C)CC2)cc1,"inconclusive: 79.4 µM [inhibitor, partial curve, poor fit]",–
O=C(O)c1ccccc1N=Cc1c(O)n(-c2nccs2)c(=O)c2ccccc12,"inconclusive: 28.2 µM [inhibitor, full curve]",–
NS(=O)(=O)c1ccc(N/N=C/c2ccc(O)c(O)c2O)c([N+](=O)[O-])c1,active: 2.51 µM,–
Brc1ccc(-c2nnc3ccc(N4CCN(c5ccccc5)CC4)nn23)cc1,"inconclusive: 11.2 µM [inhibitor, partial curve]",–

Structure (SMILES),Potency,"activity change, negative = inhibition"
O=C(OCc1cc(=O)n2cc(Br)ccc2n1)c1ccc(Cl)c(S(=O)(=O)NCc2ccccc2)c1,"inconclusive: 17.8 µM [inhibitor, partial curve, poor fit]",–
Cn1nc2c(c1C(=O)N1CCCC(C(=O)c3cc(F)ccc3F)C1)CCCC2 (stereo not drawn),–,inactive: -19.3%
COc1cc(C(=O)Nc2nnc(-c3sccc3C)s2)cc(OC)c1OC,active: 12.6 µM,–
COc1cc(CCCN2C(=S)NC[C@H]2Cc2ccc(O)cc2)cc(OC)c1OC,"inconclusive: 89.1 µM [inhibitor, partial curve, poor fit]",–
Cc1cc(NS(=O)(=O)c2ccc(NC(=O)c3ccc(Br)o3)cc2)nc(C)n1,active: 39.8 µM,–
O=C(NC(=S)Nc1ccccc1C(=O)O)c1ccc(-c2ccc(Br)cc2)o1,"inconclusive: 89.1 µM [inhibitor, single point]",–
Cc1[nH]c2ccccc2c1C(C#N)(C#N)C1C(=O)c2ccccc2C1=O,"inconclusive: 25.1 µM [inhibitor, partial curve, poor fit]",–
Cc1c(Cc2ccccc2)c(=O)oc2cc(O)cc(O)c12,–,inactive: 0.316%
Cc1cc(NC(=O)c2cc3ncc(Br)cn3n2)no1,"inconclusive: 39.8 µM [inhibitor, partial curve, poor fit]",–
NC(=O)NC(Cc1ccccc1)C(=O)NNC(=O)COc1ccccc1Cl (stereo not drawn),"inconclusive: 100 µM [inhibitor, partial curve, poor fit]",–
N#CCC(CNc1ncc(C(F)(F)F)cc1Cl)OC(=O)c1cccc([N+](=O)[O-])c1 (stereo not drawn),"inconclusive: 79.4 µM [inhibitor, partial curve, poor fit]",–
COC(=O)COc1ccc(C2NC(=O)NC(c3ccccc3)=C2C(C)=O)cc1OC (stereo not drawn),"inconclusive: 79.4 µM [inhibitor, single point]",–
COc1ccc(C(=O)Nc2ccncc2)cc1[N+](=O)[O-],–,inactive: -7.46%
COC(=O)c1ccc(Cn2c(O)c(N=NC(N)=S)c3ccccc32)o1,active: 50.1 µM,–
CS(=O)(=O)N(CC(=O)N1CCOCC1)c1cccc(Cl)c1Cl,"inconclusive: 100 µM [inhibitor, single point]",–
CCOC(=O)c1cc(-c2ccc(N3CCOCC3)cc2)nn1-c1ccccc1C(=O)O,"inconclusive: 56.2 µM [inhibitor, partial curve, poor fit]",–
O=C(N/N=C/c1ccc(O)c(O)c1)C1c2ccccc2Oc2ccccc21,"inconclusive: 15.8 µM [inhibitor, partial curve, poor fit]",–
CN1C/C(=C/c2ccccc2[N+](=O)[O-])C(=O)/C(=C\c2ccccc2[N+](=O)[O-])C1,"inconclusive: 31.6 µM [inhibitor, partial curve, poor fit]",–
CC(=O)N1Cc2ccccc2CC1C(=O)OCC(=O)c1c(N)n(C)c(=O)n(C)c1=O (stereo not drawn),"inconclusive: 12.6 µM [inhibitor, partial curve, poor fit]",–
CCOC(=O)C(=CNNc1cccc(Cl)c1)C(=O)OCC,–,inactive: -3.32%
COc1ccc(CCNC(=O)Cn2nc(C)c3c(C)n(-c4ccc(C)cc4)nc3c2=O)c(OC)c1,"inconclusive: 89.1 µM [inhibitor, single point]",–

Structure (SMILES),Potency,"activity change, negative = inhibition"
CC(Oc1ccc2ccc(=O)oc2c1)C(=O)NC(Cc1c[nH]c2ccc(O)cc12)C(=O)O (stereo not drawn),active: 22.4 µM,–
CCOc1ccc(NC(=O)CCn2nc(C)c(S(=O)(=O)N3CCCCC3)c2C)cc1,"inconclusive: 89.1 µM [inhibitor, partial curve, poor fit]",–
Cc1cccc(Nc2nc(-c3ccc(F)c(C)c3)cs2)n1,"inconclusive: 89.1 µM [inhibitor, partial curve, poor fit]",–
O=S(=O)(c1ccc(Cl)cc1)N1CCc2ccccc21,"inconclusive: 89.1 µM [inhibitor, single point]",–
Cc1noc(/C=C/c2ccco2)c1S(=O)(=O)N1CCC(C(=O)N2CCc3ccccc3C2)CC1,"inconclusive: 25.1 µM [inhibitor, full curve, poor fit]",–
CN(C)CCNc1ccc2ncn3c4ccc(O)cc4c(=O)c1c23,"inconclusive: 15.8 µM [inhibitor, partial curve, poor fit]",–
CCCOc1ccc(C(C)=O)cc1CSc1nc(O)cc(=O)[nH]1,–,inactive: -5.16%
Cc1cc(Cl)ccc1NNC(N)=S,–,inactive: -8.96%
O=[N+]([O-])c1c(Nc2ccccc2O)cc(Cl)c2nonc12,active: 44.7 µM,–
Cc1ccc(Nc2nc(N)nc(CSc3nnnn3-c3ccccc3)n2)cc1,"inconclusive: 10 µM [inhibitor, full curve, poor fit]",–
COc1ccc(C(=O)CSc2n[nH]c(C)n2)cc1[N+](=O)[O-],"inconclusive: 89.1 µM [inhibitor, single point]",–
Cc1cc(OCC(=O)NC(Cc2c[nH]c3ccc(O)cc23)C(=O)O)c2c(C)c(C)c(=O)oc2c1 (stereo not drawn),"inconclusive: 17.8 µM [inhibitor, partial curve, poor fit]",–
Cc1ccc(NC(=O)Cn2cc(C(=O)C3CCCCC3)c3ccccc32)c(C)c1,"inconclusive: 79.4 µM [inhibitor, partial curve, poor fit]",–
Cc1cccc(C(=O)Nc2nnc(S(=O)(=O)N3CCCc4ccccc43)s2)c1,"inconclusive: 89.1 µM [inhibitor, single point]",–
Cn1c(=O)n(C)c2cc(NS(=O)(=O)c3ccc(C(C)(C)C)cc3)c(NCc3ccccc3)cc21,"inconclusive: 56.2 µM [inhibitor, partial curve, poor fit]",–
COc1ccc(C(=O)NCCNc2ncc(C(F)(F)F)cc2Cl)cc1[N+](=O)[O-],"inconclusive: 50.1 µM [inhibitor, partial curve, poor fit]",–
O=c1cc(-c2ccc([N+](=O)[O-])cc2)nc2cc(-c3ccc(F)cc3)[nH]n12,active: 20 µM,–
CN1C(CC(=O)Nc2ccc(Cl)cc2Cl)c2ccccc2CC1(C)C (stereo not drawn),"inconclusive: 79.4 µM [inhibitor, partial curve, poor fit]",–
CCc1c(C)nc2ccc(Br)cc2c1Cl,–,inactive: 0.676%
O=C(NCc1ccco1)c1ccc(S(=O)(=O)N2CCOCC2)cc1,"inconclusive: 14.1 µM [inhibitor, full curve, poor fit]",–
Cc1nnc(Sc2cc(NCCCO)c([N+](=O)[O-])c3nonc23)s1,active: 79.4 µM,–
